Measurements taken from PubChem BioAssay AID463173 (ICCB-Longwood Screening Facility, Harvard Medical School, 2010).
In all, about 52,000 compounds went through this assay and about 4,300 (8.3%) were called active. Cut-off read from the data, not from the text of the source: active = survival mostly below about 52% (no sharp cut-off); inactive = mostly above about 56%. The list shows a part of the results.

What follows are compounds tested on DeltatarO mutant (assay: growth inhibition of S. aureus wild type versus tarO mutant, primary screen, teichoic acid synthesis inhibitors, RN4220, OD600 (AID 463173)). Conditions: OD600, 18 h, hits give low values, screened at 18.75 µg/mL (by protocol).
With `O=C(c1ccccc1Cl)N1CCCCC1CCN1CCCCC1` (stereo not given) the survival was inactive: 100%.
In the case of `O=C(Nc1nnc2n1CCS2)c1ccc(F)cc1F`, the survival is reported as inactive: 82%.
In the case of `COc1ccc(NC(=O)C(C)N(c2ccccc2)S(C)(=O)=O)cc1` (stereo not given), the survival is reported as inactive: 73%.
With `COc1ccc2cc(C#N)c(=S)[nH]c2c1` the survival was inactive: 78%.
`Cc1cccc(N2CCN(S(=O)(=O)c3csc(C(N)=O)c3)CC2)c1C` was tested, and the survival was inactive: 76%.
`Cc1ccc(-c2nc3ncccc3o2)cc1NC(=O)c1ccc(-c2ccc(Cl)cc2)o1` was tested, and the survival was active: 35%.
For `Cc1ccc(N(Cc2cccs2)C(=O)c2ccccc2Cl)cc1`, the survival was inactive: 78%.
For `CC1(NS(C)(=O)=O)CC=CC1`, the survival was inactive: 115%.
For `C#Cc1ccc(C#C)cc1`, the survival was inactive: 95%.
`CCOC(=O)c1ccc(NC(=O)c2cc3sccc3n2Cc2ccc(Cl)cc2)cc1` was tested, and the survival was inactive: 79%.
For `O=C(OCC1CCNCC1)c1ccc(F)cc1`, the survival was inactive: 100%.
With `Cc1ccc(-n2c(=O)c3ccc(C(=O)NCc4ccco4)cc3n(Cc3ccccc3C#N)c2=O)cc1` the survival was inactive: 129%.
With `Cn1c(=O)c2cc(C(=O)NCCCN3CCN(c4ccccc4F)CC3)sc2c2ccccc21` the survival was inactive: 82%.
In the case of `COc1ccc(NC(=O)c2ccc3c(c2)sc2nc(-c4ccc(OC)cc4)cn23)cc1`, the survival is reported as inactive: 61%.
With `Cc1ccc(NC(=O)Cn2c(=O)n(Cc3ccco3)c(=O)c3ccccc32)c(C)c1` the survival was inactive: 84%.
In the case of `CCOc1ccc(C2CC(=O)N(c3cccc(F)c3)C3=C2C(=O)OC3)cc1` (stereo not given), the survival is reported as inactive: 120%.
For `CCN(CC)c1cc2c(cc1F)c(=O)c(S(=O)(=O)c1cccc(C)c1)cn2C`, the survival was inactive: 87%.
In the case of `Cc1ccc(-c2cn(-c3cccc(Cl)c3)c(S(=O)(=O)CC(=O)Nc3ccccc3F)n2)cc1`, the survival is reported as inactive: 61%.
`O=C(Nc1ccc(C(F)(F)F)cc1)N1C2CCC1CC(O)(c1cccnc1)C2` (stereo not given) was tested, and the survival was inactive: 65%.
`CCOc1ccccc1NC(=O)C(CC)Sc1nc2ccncc2[nH]1` (stereo not given) was tested, and the survival was inactive: 122%.
`COc1ccc(CCNC(=O)c2ccc(Cn3c(=O)c4ccccc4n(Cc4cccc(Cl)c4)c3=O)cc2)cc1OC` was tested, and the survival was inactive: 91%.
`CC(C)c1ccc(NS(=O)(=O)c2ccc3nc(-c4ccccc4)[nH]c3c2)cc1` was tested, and the survival was inactive: 67%.
In the case of `CC(Sc1nnc(-c2ccco2)n1-c1ccccc1)C(=O)NC(c1ccccc1)c1ccccc1` (stereo not given), the survival is reported as inactive: 86%.
For `COc1ccc(NCc2cc3cc4c(cc3n(CC(=O)Nc3cc(C)ccc3C)c2=O)OCCO4)cc1`, the survival was inactive: 78%.
In the case of `CCOc1ccc(CN2CCc3nc(Nc4ccc5c(c4)OCCO5)ncc3C2)cc1`, the survival is reported as inactive: 89%.
With `Cc1cccc(Nc2nc3nonc3nc2N/N=C\c2cccs2)c1C` the survival was inactive: 69%.
`Cc1nn2c(=O)cc(COC(=O)c3ccccc3NC(=O)C(C)Oc3ccccc3)nc2s1` (stereo not given) was tested, and the survival was inactive: 95%.
For `CCc1ccc2ncc(C(=O)c3ccc(C)c(C)c3)c(N3CCC(C(N)=O)CC3)c2c1`, the survival was inactive: 86%.
With `CCCOc1ccc(C(=O)N(Cc2ccccc2Cl)C2CCS(=O)(=O)C2)cc1` (stereo not given) the survival was inactive: 65%.
With `COc1ccc(C2=Nc3ccc(F)cc3NC(c3cccc(C(F)(F)F)c3)=N2)cc1` the survival was inactive: 68%.
In the case of `Cc1ccc(Cn2c(CNC(=O)CCc3ccccc3)nc3cccnc32)cc1`, the survival is reported as inactive: 97%.
`Cc1cccc(N2CCN(Cc3nnc(-c4ccccc4C)o3)CC2C)c1` (stereo not given) was tested, and the survival was active: 33%.
For `COC(=O)c1ccccc1NC(=O)c1cnc(Nc2ccc(OC)cc2)c2ccccc12`, the survival was inactive: 61%.
For `CCOc1cc(Br)cc(C2NC(=O)c3c(sc4c3CCN(C)C4)N2)c1O` (stereo not given), the survival was inactive: 59%.
For `CCC1CCCCN1C(=O)c1cc2cc(OC)ccc2oc1=O` (stereo not given), the survival was inactive: 111%.
In the case of `COCCCNC(=O)CCCn1c(SCC(=O)c2ccc(F)cc2)nc2c(sc3ccccc32)c1=O`, the survival is reported as inactive: 73%.
With `COc1ccc(CNC(=O)CSc2ncc3c(n2)-c2ccc(Cl)cc2N(Cc2ccc(F)cc2)S3(=O)=O)cc1OC` the survival was inactive: 112%.
`O=C(CSc1c2c(nc3ccccc13)CCC2)Nc1ccc(F)cc1` was tested, and the survival was inactive: 127%.
With `COc1ccc(Cn2c(C(=O)O)c(CNCc3ccco3)c3ccc(OC)cc32)cc1` the survival was inactive: 69%.
In the case of `CC(C)c1c(O)c2ccccc2[nH]c1=O`, the survival is reported as inactive: 81%.
In the case of `COc1ccc(-n2cnc3cc(C(=O)NC4CCCC4)ccc32)cc1`, the survival is reported as inactive: 101%.
For `CCOC(=O)c1ccc(NC(=O)CSc2nnc3c4ccccc4n(CC)c3n2)cc1`, the survival was inactive: 72%.
For `CCCCNc1c2c(c(C#N)c3nc4ccccc4n13)CCC2`, the survival was inactive: 110%.
In the case of `Cc1ccc(CCNC(=O)CCCn2c(=O)c3ccccc3n(Cc3ccccc3C)c2=O)cc1`, the survival is reported as inactive: 88%.
With `O=C(COc1ccc(F)cc1)NCC(c1ccc(Cl)cc1)N1CCCCC1` (stereo not given) the survival was inactive: 96%.
In the case of `COc1cc(OC)c(-c2cc(C(=O)NCc3ccc(F)cc3)c3c(-c4ccccc4)[nH]nc3n2)cc1OC`, the survival is reported as inactive: 98%.
For `COc1ccc(CCNC(=O)Cn2c(=O)n(-c3ccccc3)c(=O)c3c(C)c(C)sc32)cc1OC`, the survival was active: 84%.
With `CC(=O)N1c2ccc(S(=O)(=O)N3CCCCCC3)cc2CC1C(=O)NCc1ccccc1C` (stereo not given) the survival was inactive: 70%.
With `CCCCOc1cccc(C(=O)N(Cc2ccc(N(C)C)cc2)C2CCS(=O)(=O)C2)c1` (stereo not given) the survival was inactive: 56%.
In the case of `O=C(Cn1cnc(S(=O)(=O)N2CCCC2)c1)Nc1cccc(Br)c1`, the survival is reported as inactive: 67%.
For `NC(=O)c1nsc(C(=O)N(CC(=O)NCc2ccc3c(c2)OCO3)C2CCCCC2)c1N`, the survival was inactive: 83%.
In the case of `Cc1cc(-c2nc3ncccc3o2)ccc1NC(=O)c1ccccc1Br`, the survival is reported as active: 27%.
For `COc1cccc(Oc2nc(C)nc3c2oc2ccccc23)c1`, the survival was active: 25%.
With `Cc1c(C(=O)NCc2cccc(Cl)c2)sc2nc[nH]c(=O)c12` the survival was inactive: 81%.
In the case of `CCOc1ccccc1NC(=O)C1CCN(S(=O)(=O)c2cccs2)CC1`, the survival is reported as inactive: 58%.
With `CC(CNC(=O)CCc1cn(Cc2ccccc2Cl)c2ccccc12)c1ccccc1` (stereo not given) the survival was inactive: 66%.
`CCOc1ccc(NC(=O)Cn2ccn3nc(-c4ccc(OC)c(OC)c4)cc3c2=O)cc1` was tested, and the survival was inactive: 102%.
`Cc1cc(C)cc(NC(=O)Nc2ccc3nc(N4CCN(C)CC4)cc(C)c3c2)c1` was tested, and the survival was inactive: 117%.
`Cc1nc(N2CCCC2)c2c(C(=O)Nc3cccc(Cl)c3)c(C)oc2n1` was tested, and the survival was active: 20%.
In the case of `CCCS(=O)(=O)c1nc(S(=O)(=O)c2ccc(C)cc2)c(NCc2ccccc2Cl)s1`, the survival is reported as inactive: 103%.
In the case of `CC(=O)N1CCOc2cc(S(=O)(=O)NCc3ccc(F)cc3)c(C)cc21`, the survival is reported as inactive: 88%.
In the case of `COc1ccc(-n2nc(C(=O)N3CCN(c4ccccc4OC)CC3)c3c4ccccc4n(C)c3c2=O)cc1Cl`, the survival is reported as inactive: 123%.
With `COc1ccccc1CNC(=O)CCCN1C(=O)CSc2c1c(C)nn2-c1ccccc1` the survival was inactive: 86%.
`CC(C)C1N=C2c3ccccc3N=C(SCC(=O)NCc3ccc(Cl)cc3)N2C1=O` (stereo not given) was tested, and the survival was inactive: 75%.
For `O=C(Nc1ccc2c(c1)CCCN2C(=O)c1cccs1)c1ccccc1`, the survival was inactive: 89%.
In the case of `O=C(Cn1c(=O)n(Cc2ccccc2)c(=O)c2sc3ccccc3c21)Nc1ccccc1F`, the survival is reported as inactive: 108%.
For `O=C(NC1CCCc2ccccc21)c1ccc2c(c1)sc1nc(-c3ccccc3)cn12` (stereo not given), the survival was inactive: 67%.
In the case of `Cc1ccc2oc(-c3cccc(NC(=O)Cc4ccc(Cl)cc4)c3)nc2c1`, the survival is reported as inactive: 72%.
With `CSc1ccc(NC(=O)N2C3CCC2CC(O)(c2cccnc2)C3)cc1` (stereo not given) the survival was inactive: 79%.
For `CCOC(=O)c1cccc(NS(=O)(=O)c2cc(-c3cnc(C4CC4)o3)ccc2C)c1`, the survival was inactive: 90%.
For `Cc1c(C(=O)OC(C)C)sc(NC(=O)C2c3ccccc3Oc3ccccc32)c1C(=O)OC(C)C`, the survival was inactive: 80%.
In the case of `NC(=O)N/N=C/c1ccc(-c2ccc(Cl)cc2)o1`, the survival is reported as inactive: 87%.
In the case of `Cc1ccc(Sc2c(C)nn(C(=O)c3ccc(Cl)cc3)c2C)cc1`, the survival is reported as active: 19%.
For `Cc1ccc(-n2c3nc(=O)[nH]c(=O)c-3cc3c(C)nn(-c4ccccc4)c32)cc1C`, the survival was inactive: 107%.
`CCOC(=O)c1c(S(=O)(=O)N2CCCC(C(=O)Nc3ccc(C)cn3)C2)c(C)n(C)c1C` (stereo not given) was tested, and the survival was inactive: 72%.
With `CCCOc1nc(N)c(C#N)c(-c2ccccc2F)c1C#N` the survival was inactive: 84%.
With `CC1(C)CC(=O)c2cc(C#N)c(=O)n(-c3ccc(Cl)cc3)c2C1` the survival was inactive: 52%.
With `O=C(O)CCC(=O)Nc1sc2c(c1C(=O)Nc1ccccc1)CCCCC2` the survival was inactive: 92%.
With `CCc1ccc(NC(=O)c2ccc(F)c(S(=O)(=O)N3CCN(c4ccc(OC)cc4)CC3)c2)cc1` the survival was inactive: 76%.
In the case of `Cc1ccsc1CN(C(=O)c1ccc(OCC(C)C)cc1)C1CCS(=O)(=O)C1` (stereo not given), the survival is reported as inactive: 83%.
For `CC(C)CN(CC(C)C)C(=O)C1CCCN(S(=O)(=O)c2ccc3c(c2)oc(=O)n3C)C1` (stereo not given), the survival was inactive: 98%.
In the case of `COc1cccc(NC(=O)c2nn(-c3ccc(C)cc3)c(=O)n(C)c2=O)c1`, the survival is reported as inactive: 124%.
With `Cc1cc(C)c2nc(N3CCCC(C(=O)NCc4cccc(Cl)c4)C3)sc2c1` (stereo not given) the survival was inactive: 65%.
In the case of `COc1ccc(CNS(=O)(=O)c2cc3c(cc2C)n(C)c(=O)c(=O)n3C)cc1`, the survival is reported as inactive: 91%.
`Cc1ccc(NS(=O)(=O)c2ccc3c(c2)NC(=O)C(C)C(=O)N3)cc1F` (stereo not given) was tested, and the survival was inactive: 69%.
In the case of `CCc1ccc(CNC(=O)c2ccc3nc(SCc4ccc(F)cc4)n(C)c3c2)cc1`, the survival is reported as inactive: 94%.
`Cc1ccc(NC(=O)CSc2cc(=O)n(C)c3ccc(Cl)cc23)c(Br)c1` was tested, and the survival was inactive: 79%.
`Cc1cccc(N2CCN(C(=O)c3cc4c(=O)oc5ccccc5c4s3)CC2C)c1` (stereo not given) was tested, and the survival was inactive: 45%.
For `COC(=O)CSc1nc2ccccc2s1`, the survival was inactive: 94%.
For `Cc1ccc(-n2nc(C(=O)N3CCN(c4cccc(C(F)(F)F)c4)CC3)c(=O)n(C)c2=O)cc1`, the survival was inactive: 90%.
